Assay results: the RNAGym collection of RNA variant scans (doi:10.1073/pnas.2313332121)
Variants at the floor of the assay are shown more often than the library holds them.

B1: TPR 5TU (parent)
chain: GGAUCUUCUCGAUCUAACAAAAAAGACAAAUCUGCCACAAAGCUUGAGAGCAUCUUCGGAUGCAGAGGCGGCAGCCUUCGGUGGCGCGAUAGCGCCAACGUUCUCAACUAUGACACGCAAAACGCGUGCUCCGUUGAAUGGAGUUUAUCAUG

Variants of: B1
Assay: polymerase ribozyme fitness, log enrichment relative to wild type (log ratio); higher = more active; in vitro selection for triplet polymerase activity
Summary of the method: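 In triplicate, a single round of in vitro selection was run on each mutant library, PCR-built and transcribed, covering one subunit of a heterodimeric triplet polymerase ribozyme. Frozen incubation at −7 °C followed annealing with a biotinylated primer, partner subunit and triplets, and extended constructs were then gel-excised, streptavidin-captured and taken through RT-PCR. Fitness is the logarithm of genotype enrichment over wild-type enrichment, from inverse-variance-weighted replicate averages of Illumina-sequenced inputs and outputs. […] only genotypes with ≥10 input reads and ≥1 read per output were kept.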

Variant | polymerase ribozyme fitness (log ratio)
GGAUCUUCUCGAUCUAACAAAAAAGACAAAUCUGCCACAAAGCUUGAGAGCAUCUUCGGAUGCAGAAGCGACAGCCUUCGGUGGCGCGAUAGCGUCAACGUUCUCAACUAUGACACGCAAAACGCGUGCUCCGUUGAAUGGAGUUUAUCAUG [G67A G71A C95U] | ≤ -4.2
GGAUCUUCUCGAUCUAACAAAAAAGACAAAUCUGCCACAAAGCUUGAGAGCAUCUUCGGAUGCAGACGCGGCAGCCUUCGGUGGCGCGAUAGCGCCAACGAUCUCAACUAUGACACGCAAAACGCGUGCUCCGUUGAAUGUAGUUUAUCUUU [G67C U101A G141U A150U G152U] | ≤ -4.2
GGAUCUUCUCGAUCUAACAAAAAAGACAAAUCUGCCACAAAGCUUGAGAGCAUCUUCGGAUGCAGACGCGGCAGCCUUCGGUGGCGCGAUAGCGCUGACGUUCUCAACUAUGACCCGCAAAACGCGUGCUCCGUUGAAUGGAGUUUAUCAUG [G67C C96U A97G A115C] | ≤ -4.2
GGAUCUUCUCGAUCUAACAAAAAAGACAAAUCUGCCACAAAGCUUGAGAGCAUCUUCGGAUGCAGAAGCGGCAGCCUUCCGUGGCGCGAUAGCGCCAACGUUCUCAACUAUGACACGCAAACCGUGUGCUCCGUUGAAAUGAGUUUAUCAUG [G67A G80C A122C C125U U139A G140U] | ≤ -4.2
GGAUCUUCUCGAUCUAACAAAAAAGACAAAUCUGCCACAAAGCUUGAGAGCAUCUUCGGAUGCAGACGCGGUAGCCUUCGGUGGGGCGAUAGCGCCAACGUUCUCAACUAUGACACGCAAAACGCGUGCUCCGUUGAAUGGACUUUAUCAUG [G67C C72U C85G G143C] | ≤ -4.2
GGAUCUUCUCGAUCUAACAAAAAAGACAAAUCUGCCACAAAGCUUGAGAGCAUCUUCGGAUGCAGACGCGGCAGCCUACGGUGGCGCGAUGGCGCCAACGUUCUCAACUAUGACACGCAAAACGCGUGCUCCGUUGGAUGGAGUUUAUCAUG [G67C U78A A91G A137G] | ≤ -4.2
GGAUCUUCUCGAUCUAACAAAAAAGACAAAUCUGCCACAAAGCUUGAGAGCAUCUUCGGAUGCAGACGCGGCAGCCUUCGGUGGCGCCAUAGCGCCUACGUUCUCAACUACGACACGCAAAACGCGUGCUCCGUUGAAUGGAGUUUAUCAUG [G67C G88C A97U U111C] | ≤ -4.2
GGAUCUUCUCGAUCUAACAAAAAAGACAAAUCUGCCACAAAGCUUGAGAGCAUCUUCGGAUGCAGACGCGGCAGCAUUCGGUCGCGCGAUAGCGCAAACGUUCUCAACUAUGACCCGCAAAACGCGUGCUCCGUUGAAUGGAGAUUAUCAUG [G67C C76A G83C C96A A115C U144A] | ≤ -4.2
GGAUCUUCUCGAUCUAACAAAAAAGACAAAUCUGCCACAAAGCUUGAGAGCAUCUUCGGAUGCAGACGCGGCAGCCUUCGGUGGCGCGAUAGCGCCAACGUUCUCAACUAUGACACGCAUAACGCGUGCUCCGUUGAAUGGAGUUUAUCAUG [G67C A120U] | ≤ -4.2
GGAUCUUCUCGAUCUAACAAAAAAGACAAAUCUGCCACAAAGCUUGAGAGCAUCUUCGGAUGCAGAAGCGGCAGCCUUCGGUGUCGCGAUAGCGCCAACGUUCUCAACUAUGACACGCAGAACGCGUGCUCCGUUGAAUGGAGUUUAUCAUG [G67A G84U A120G] | ≤ -4.2
GGAUCUUCUCGAUCUAACAAAAAAGACAAAUCUGCCACAAAGCUUGAGAGCAUCUUCGGAUGCAGACGCGGCAGCCUUCGGUGGCGCGAUAGCGCCAACGUUCUCAACUAUGACACGUAAAACGCGUGCUCCGUUGAAUGGAGUUUAUCAUG [G67C C118U] | ≤ -4.2
GGAUCUUCUCGAUCUAACAAAAAAGACAAAUCUGCCACAAAGCUUGAGAGCAUCUUCGGAUGCAGAAGCGGCAGCCUUCGUUGGGGCGAUAGCGUCAACGUUCUCAACUAUGACACGCAAAACGCGUGCUCCGUUGAAUGGCGGUUAUCAUG [G67A G81U C85G C95U A142C U144G] | ≤ -4.2
GGAUCUUCUCGAUCUAACAAAAAAGACAAAUCUGCCACAAAGCUUGAGAGCAUCUUCGGAUGCAGACGCGGCAGCCUUCGGUGGCGCGAUAGCGCUAACGUUUUCAACUAUGAAACGCAAAACGCGUGCUCCGUUGAAUGGAGUUUAUCAUG [G67C C96U C103U C114A] | ≤ -4.2
GGAUCUUCUCGAUCUAACAAAAAAGACAAAUCUGCCACAAAGCUUGAGAGCAUCUUCGGAUGCAGAAGCGGCAGCCUUCGGUGGCGUGAUAGCGCCAACGUUCUCAACUAUGACACGCAAAACGCGUGCUCCGUUGAAUUGAGUUUAUCAUG [G67A C87U G140U] | ≤ -4.2
GGAUCUUCUCGAUCUAACAAAAAAGACAAAUCUGCCACAAAGCUUGAGAGCAUCUUCGGAUGCAGACGCGGCUGCCGUCCGUGGCGCGAUAGCGCGAACGUUCUCAACUAUGACACGCAAAACGCGAGCUCCGUUGAAUGGAGUUUACCAUG [G67C A73U U77G G80C C96G U127A U148C] | ≤ -4.2
GGAUCUUCUCGAUCUAACAAAAAAGACAAAUCUGCCACAAAGCUUGAGAGCAUCUUCGGAUGCAGACGCGGCAGCCUUCGGUGGCGCGAGAGCGCCAACGUUCUCAACUAUGACACGGAAAACGCGUGCUCCGUUGAAUGGAGUUUAUCAUG [G67C U90G C118G] | ≤ -4.2
GGAUCUUCUCGAUCUAACAAAAAAGACAAAUCUGCCACAAAGCUUGAGAGCAUCUUCGGAUGCAGAAGCGGCAGCCUUCGCUGGCGCAAUAGCGCCAACGUUCUCAACUAUGACACGCAAAACGCGUGCUCCGUUGAAUGGAGUUUAUCAUG [G67A G81C G88A] | ≤ -4.2
GGAUCUUCUCGAUCUAACAAAAAAGACAAAUCUGCCACAAAGCUUGAGAGCAUCUUCGGAUGCAGAAGCGGCAGCCUUAGGUGGCGCGAUAGCGCCAACGUUCUCAACUAUGACACGCAAAACGCGUGCUCCGUUGAAUGGAGUUUAUCAUG [G67A C79A] | ≤ -4.2
GGAUCUUCUCGAUCUAACAAAAAAGACAAAUCUGCCACAAAGCUUGAGAGCAUCUUCGGAUGCAGACGCGGCUGCCUUCGGUAGCGUGAUAGCGCCAAGGUUCUAAACUAUGACACGCAAAACGCGUGCUCCGUUGAAUGGAGUUUAUCAUG [G67C A73U G83A C87U C99G C105A] | ≤ -4.2

Variant | polymerase ribozyme fitness (log ratio)
GGAUCUUCUCGAUCUAACAAAAAAGACAAAUCUGCCACAAAGCUUGAGAGCAUCUUCGGAUGCAGAUGCGGCUGCCUUCGGUGGCGCGAUGGCGCCAACGUUCUCAACUAUGACACUCAAAACGCGUGCUCCGUUGAAUGGAGUUUAUCAUG [G67U A73U A91G G117U] | ≤ -4.2
GGAUCUUCUCGAUCUAACAAAAAAGACAAAUCUGCCACAAAGCUUGAGAGCAUCUUCGGAUGCAGAAGCGGCAGCCUUCGGUGGCGCGAUAGAGCAAACGUUCUCAACUAUGACACGCAAAACGCGUGCUCCGUUGAAUGGAGUUUAUCAUG [G67A C93A C96A] | ≤ -4.2
GGAUCUUCUCGAUCUAACAAAAAAGACAAAUCUGCCACAAAGCUUGAGAGCAUCUUCGGAUGCAGAAGCGGCAGCCUUCGGUGGCGAGAUAGCGCCCACGUUCUCAACUAUGACACGCAAAACGCGUGCUCCGUUGAAUGGACUUUAUCAUG [G67A C87A A97C G143C] | ≤ -4.2
GGAUCUUCUCGAUCUAACAAAAAAGACAAAUCUGCCACAAAGCUUGAGAGCAUCUUCGGAUGCAGAAGCGGCAGCCUUCGGUGGCGCGACAGCGCCAACGUUCUCAACUAUGACACGCAAAACGCGUGCUCCGUUGAAUGGAGUUUAUCAUG [G67A U90C] | ≤ -4.2
GGAUCUUCUCGAUCUAACAAAAAAGACAAAUCUGCCACAAAGCUUGAGAGCAUCUUCGGAUGCAGACGCGGCAGCCUUCGGUGGGCCGAUAGAGCCAACGUUCUCUACUAUGACACGCAAAACGCGUGCUCCGUUGAAUGGAGUUUAUCAUG [G67C C85G G86C C93A A106U] | ≤ -4.2
GGAUCUUCUCGAUCUAACAAAAAAGACAAAUCUGCCACAAAGCUUGAGAGCAUCUUCGGAUGCAGACGCGGCAGCCUUCGGUGGCGUGAUAGCGCCAACGUUCUCAACUAUGACACGCAAAACGCGUGCUCCGUUGAAUGGAGUUUAUUAUG [G67C C87U C149U] | ≤ -4.2
GGAUCUUCUCGAUCUAACAAAAAAGACAAAUCUGCCACAAAGCUUGAGAGCAUCUUCGGAUGCAGAAGCGGCAGCCUUCGGUGGCGCGAUAACGACAACGUUCUCAACUAUGACACGCAAAACGCGUGCUCCGUUGAAUGGAGUUUAUCACG [G67A G92A C95A U151C] | ≤ -4.2
GGAUCUUCUCGAUCUAACAAAAAAGACAAAUCUGCCACAAAGCUUGAGAGCAUCUUCGGAUGCAGAAGCGGCAGCCUUCGGUGGCGCGAUAGCGCCAACGUGCUCAACUAUGACACGCAAAACGCGUGCUCCGUUGAAUGGAGUUUAUCAUG [G67A U102G] | ≤ -4.2
GGAUCUUCUCGAUCUAACAAAAAAGACAAAUCUGCCACAAAGCUUGAGAGCAUCUUCGGAUGCAGAAGCGGCAGCCUGCGGUGGGGUGAUAGCGCCAACGUUCUCAACUAUGACACGCAAAACGCGUGCUCCGUUGAAUCGAGUUUAUCCUG [G67A U78G C85G C87U G140C A150C] | ≤ -4.2
GGAUCUUCUCGAUCUAACAAAAAAGACAAAUCUGCCACAAAGCUUGAGAGCAUCUUCGGAUGCAGAAGCGGCAGCCUUCGGUGGCACGAUAGCGCCAACGUUCUCAACUAUGACACGCAAAACGCGUGCUCCGUUGAAUGGAGUUUAUCAUG [G67A G86A] | -3.58
GGAUCUUCUCGAUCUAACAAAAAAGACAAAUCUGCCACAAAGCUUGAGAGCAUCUUCGGAUGCAGAAGCGGUAGGCUUCGGUGGCGCGAUACCGUCAACGUUCUCAACUAUGGCAGGCAAAACGCGUGCUCCGUUGAAUGGAGUUUAUCAUG [G67A C72U C75G G92C C95U A113G C116G] | ≤ -4.2
GGAUCUUCUCGAUCUAACAAAAAAGACAAAUCUGCCACAAAGCUUGAGAGCAUCUUCGGAUGCAGAAGCGGCAGCCUUCGGUGACGCGAUAGCGCCAACGUUCUCAACUAUGACACGCAAAACGCGUGCUCCGUUGAAUGGAGUUUAUCAUG [G67A G84A] | ≤ -4.2
GGAUCUUCUCGAUCUAACAAAAAAGACAAAUCUGCCACAAAGCUUGAGAGCAUCUUCGGAUGCAGACGCGGCAGCCUUCGGUGGCGCGAUAGCGCCAACGUUCGCCACUGUGACACGCAAAACGCGUGCUCCGUUGAAUGCAGUUUAUCAUG [G67C U104G A106C A110G G141C] | ≤ -4.2
GGAUCUUCUCGAUCUAACAAAAAAGACAAAUCUGCCACAAAGCUUGAGAGCAUCUUCGGAUGCAGACGCGGCAGCCUUUGGUGGCGCGAUAGCGUCAUCGUUCAUAACUAUGACACGCAAAACGCGUGCUCCGUUGAAUGGAGUUUAUCAUG [G67C C79U C95U A98U U104A C105U] | ≤ -4.2
GGAUCUUCUCGAUCUAACAAAAAAGACAAAUCUGCCACAAAGCUUGAGAGCAUCUUCGGAUGCAGACGCGGCAGCCUUCGGUGGCGCGAUAGCGCCAACCUUCUCAACUAUGACACGCAAAACGCGUGCUCCGUUGGAUGGAGUUUAUCAUG [G67C G100C A137G] | ≤ -4.2
GGAUCUUCUCGAUCUAACAAAAAAGACAAAUCUGCCACAAAGCUUGAGAGCAUCUUCGGAUGCAGAAGCGGCAGCAUUCGGUGGCGCGACAGCGCCAACGUUCUCAACUAUGACACGCAAAACGCGUGCUCCGUUGAAUAGAGUUUAUCAUG [G67A C76A U90C G140A] | ≤ -4.2
GGAUCUUCUCGAUCUAACAAAAAAGACAAAUCUGCCACAAAGCUUGAGAGCAUCUUCGGAUGCAGACGCGGCAGCCUUCGGUGUCGCGAUAGCGCCAACGUUCUCAACUAUGACACGCAACACGCGUGCUCCGUUGAAUGGAGUUUAUCAUG [G67C G84U A121C] | ≤ -4.2
GGAUCUUCUCGAUCUAACAAAAAAGACAAAUCUGCCACAAAGCUUGAGAGCAUCUUCGGAUGCAGACGCGGCAGCCUUCGGUGGCGCGAUAGCGUCAACGUUCUCAACUAUGACACGCAAAACGCGUGCUCCGUUGAAUGGAGUUUAUCAUG [G67C C95U] | ≤ -4.2
GGAUCUUCUCGAUCUAACAAAAAAGACAAAUCUGCCACAAAGCUUGAGAGCAUCUUCGGAUGCAGACGCGGCAGCCUUCGGUGGCGCGAUCGCGCCAACGUUCUCAACUAUGACACGCAAAACGCGUGCUCCGUUGAAUGGAGUUUAUCAUG [G67C A91C] | ≤ -4.2
